# Data published in PubChem BioAssay AID686979 (National Center for Advancing Translational Sciences (NCATS), 2013).
# Hit rate of the full screen: of about 420,000 compounds, about 50,000 (12%) were called active. Inconclusive results, whose numbers are uncertain, are shown with a selection of clear calls. The call rests on the fitted dose curve; in most records, active means well fitted inhibition curve with a large enough effect; inconclusive means small, poorly fitted or top-dose-only effect; inactive means flat fitted curve, though single readings scatter. Potencies of inconclusive entries are left out as doubtful fits.
# Experiment: qHTS for Inhibitors of human tyrosyl-DNA phosphodiesterase 1 (TDP1): qHTS in cells in presence of CPT; further: nearly all actives have a fitted effect of over 55% in size
# Conditions: chicken DT40 Tdp1-/-;hTDP1 cells + 20 nM CPT, ATP luminescence, 48 h; activity change, negative = growth inhibition: at 46.2 µM (top of the series) unless noted
# Method in brief: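 Cell growth measured by CellTiter-Glo luminescence after a minimum 48 h, 37 C compound exposure with 20 nM CPT in Tdp1-knockout DT40 cells stably expressing hTDP1, seeded 400/well; qHTS titration format.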
# On the % scale 0 is the no-effect control and ±100 the full control effect; potency means the concentration at half of the fitted maximal effect; tags describe the fitted curve by direction and shape.
Compound,Potency,"activity change, negative = growth inhibition"
CCCn1c(C2CC(=O)N(c3cc(OC)ccc3OC)C2)nc2ccccc21 (stereo unspecified),active: 20.6 µM,
Nn1cc(-c2ccccc2)nc1SCC(=O)NCCc1ccccc1,,inactive: -12.3%
CC(OC(=O)C1CCCC1)C(=O)Nc1ccc(S(N)(=O)=O)cc1 (stereo unspecified),,inactive: -28.5%
O=C(COc1ccc(F)cc1Cl)Nc1cccc(S(=O)(=O)N2CCCCCC2)c1,"inconclusive [inhibitor, single point]",
Cc1noc(C)c1S(=O)(=O)N(CC(=O)NCc1ccc(F)cc1)c1ccc(C(C)C)cc1,"inconclusive [inhibitor, single point]",
COCC(=O)NC1CCN(CC(=O)Nc2ccc(OC)cc2[N+](=O)[O-])CC1,"inconclusive [inhibitor, single point]",
COc1ccccc1NCC(=O)N/N=C/c1c(O)ccc2ccccc12,active: 5.8 µM,
CCC(=O)N1CCc2cc(Br)cc(S(=O)(=O)NCCc3cccc(C)c3)c21,active: 16.4 µM,
Cc1cccc(C(=O)Nc2cc3c(cc2C)n(C)c(=O)n3C)c1,,inactive: -0.602%
COC(=O)c1ccc(C2NC(=S)N(c3ccccc3)C(C)=C2C(=O)Nc2ccccc2OC)cc1 (stereo unspecified),"inconclusive [inhibitor, partial curve, poor fit]",
COc1ccc2c(c1OC)C(=O)N1C2SC(C)(C)[C@H]1C(=O)NC(C)C (stereo partly specified),"inconclusive [inhibitor, partial curve]",
CCOc1cc(C(=O)Nc2cc3c(cc2N2CCCC2)n(C)c(=O)c(=O)n3C)cc(OCC)c1OCC,,inactive: -2.88%
CCc1ccccc1NC(=O)CSc1nnc(CCNC(=O)OC(C)(C)C)o1,,inactive: 4.67%
Cc1cccc(C)c1NC(=O)C(NC=O)c1ccc(Cl)cc1 (stereo unspecified),"inconclusive [inhibitor, single point]",
Cc1ccc(S(=O)(=O)N(C)C)cc1-n1c(SCC(=O)Nc2ccccc2)nc2ccccc2c1=O,"inconclusive [inhibitor, single point]",
O=C1C(c2ccc(F)cc2)N(CCc2ccc(Cl)cc2)C(=O)CN1C1CCCCC1 (stereo unspecified),active: 16.4 µM,
C=CCNC(=O)COc1cc(C)ccc1C,,inactive: -22.1%
Cc1nnc(N2CCN(C(=O)NCCC(C)C)CC2)c2nn(-c3ccc(Cl)cc3)c(C)c12,,inactive: -3.43%
NNC(=O)CNC(=O)c1ccccc1F,,inactive: -4.4%
CCC(=O)N[C@@H]1Cc2ccccc2[C@@H](c2ccccc2)C1,"inconclusive [inhibitor, single point]",
CCc1ccc(/C=C2\SC(=S)N(CCCC(=O)Nc3ccc(C(=O)O)cc3)C2=O)cc1,,inactive: -13.3%
O=C(CCCCn1c(=O)[nH]c2ccccc2c1=O)NC1CCN(Cc2ccccc2)CC1,,inactive: -19.4%
CCCN(CCC)C(=O)c1ccc2c(=O)n(Cc3ccco3)c(=S)[nH]c2c1,"inconclusive [inhibitor, single point]",
O=C(Nc1ccccc1OC(F)F)c1cccc(S(=O)(=O)N2CCCC2)c1,"inconclusive [inhibitor, single point]",

Compound,Potency,"activity change, negative = growth inhibition"
Cc1ccc(-c2nn(C(C)(C)C)c3ncnc(NS(=O)(=O)c4ccc([N+](=O)[O-])cc4)c23)cc1,active: 20.6 µM,
COc1cccc(NC(=O)COc2cc(C)cc3oc(=O)cc(C)c23)c1,,inactive: -0.0121%
Cc1cccc(NC(=O)C2CC(O)CN2C(=O)Oc2ccccc2)c1 (stereo unspecified),,inactive: 15.3%
Cc1ccccc1N(CC(=O)N/N=C/c1ccc(F)cc1)C(=O)c1ccccc1,"inconclusive [inhibitor, single point]",
CC(=O)N1CCc2c(sc3c2c(=O)n(-c2ccccc2)c(=O)n3CC(=O)c2ccccc2)C1,,inactive: 25.2%
CCOC(=O)c1c(-c2ccc(C)cc2)csc1/N=C(\C)C1=C(O)c2ccccc2C1=O,active: 23.1 µM,
Cn1c(Cl)c(C(=O)Nc2ccccc2)c2ccccc21,"inconclusive [inhibitor, single point]",
Cc1cc(N/N=C2/CCCc3ccccc32)nc2ccccc12,"inconclusive [inhibitor, single point]",
O=C(NC1CCN(Cc2ccccc2)CC1)c1ccc(Cn2c(=O)c3ccccc3n(Cc3ccc(Cl)cc3)c2=O)cc1,"inconclusive [inhibitor, single point]",
Cc1ccc(NS(=O)(=O)c2ccc3c(c2)oc(=O)n3C)cc1,"inconclusive [inhibitor, partial curve, poor fit]",
CC(C)c1cc(Cn2c3ccccc3c(=O)n2C(C)Cn2cc(-c3ccc(C(C)(C)C)cc3)nn2)on1 (stereo unspecified),"inconclusive [inhibitor, single point]",
Cc1ccc(C)c(NC(=O)CN2C(=O)CCc3cc(S(=O)(=O)N4CCCCC4)ccc32)c1,"inconclusive [inhibitor, partial curve]",
C=CCn1c(C)cc(C(=O)CSc2nnc(Cc3ccccc3)o2)c1C,,inactive: -2.3%
Cc1ccc(NC(=O)CSc2ccc(-c3ccco3)nn2)cc1,"inconclusive [inhibitor, single point]",
CC(C)(C)c1ccc(S(=O)(=O)/N=C2\C=C(NS(=O)(=O)c3ccccc3)C(=O)c3ccccc32)cc1,active: 20.6 µM,
CC(C)OCCCNc1ncc2c(n1)CC(c1ccc(N(C)C)cc1)CC2=O (stereo unspecified),"inconclusive [inhibitor, single point]",
Cc1ccc(Cn2c(=O)n(Cc3ccccc3)c(=O)c3oc4ccccc4c32)cc1,,inactive: 15.2%
O=C(C1=C[C@@H](c2coc3ccccc3c2=O)C[C@@H](OCc2ccc(CO)cc2)O1)N1CCCCCCC1,active: 11.6 µM,
COCc1nc2ccccc2n1Cc1ccc(C(C)(C)C)cc1,active: 20.6 µM,
COc1ccc(CCNCc2csc3nc4ccccc4n23)cc1OC,active: 11.6 µM,
Clc1ccccc1CNCC1CCC(CNCc2ccccc2Cl)CC1 (stereo unspecified),active: 2.99 µM,
O=C(c1cc2cc(F)ccc2[nH]1)N1CCN(Cc2ccc3c(c2)OCO3)CC1,"inconclusive [inhibitor, partial curve]",
CC(=O)N1CCc2cc(S(=O)(=O)NC(Cc3ccccc3)C(=O)NCc3ccccc3)ccc21 (stereo unspecified),,inactive: 1%
CCN(CC)c1ccc(/C=N/NC(=O)C2CC2)cc1,"inconclusive [inhibitor, single point]",

Compound,Potency,"activity change, negative = growth inhibition"
Cc1ccc(C(=O)CSc2nnc(C)s2)cc1,,inactive: -3.92%
N#Cc1ccc(C(C(=O)NC2CCCCC2)n2c(=O)c(-c3cc4ccccc4[nH]3)nc3ccccc32)cc1 (stereo unspecified),active: 14.6 µM,
COc1ccc(C(=O)C(CCC(CNC(C)(C)C)C(=O)c2ccc(OC)cc2)CNC(C)(C)C)cc1 (stereo unspecified),active: 5.17 µM,
[O-]/[N+](=C\c1ccccc1)c1ccccc1,"inconclusive [inhibitor, single point]",
O=C(CSc1nccn1-c1ccc(F)cc1)Nc1nc2ccccc2s1,,inactive: -1.48%
O=C(CC1N=C2c3ccccc3N=C(SCc3ccc(F)cc3)N2C1=O)NCCc1ccccc1 (stereo unspecified),"inconclusive [inhibitor, single point]",
C#CCOCCOCCOCCNc1nc(N2CCN(C(=O)[C@H](CCCCN)n3cc(CCCC)nn3)CC2)nc(N2CCN(C(=O)[C@H](CCCCN)n3cc(CCC(=O)O)nn3)CC2)n1,,inactive: -2.93%
CC(C)c1cc(C(C)C)c(S(=O)(=O)N2c3ccccc3[C@@]3(Br)C[C@H]4C(=O)N[C@@H](Cc5ccccc5)C(=O)N4[C@@H]23)c(C(C)C)c1,active: 11.6 µM,
COc1ccc2[nH]c3c(c2c1)CCN(C(=O)CCC1CCCC1)C3c1ccc(F)cc1 (stereo unspecified),"inconclusive [inhibitor, single point]",
Cc1ccc(S(=O)(=O)N/N=C/c2cccs2)cc1,,inactive: 2.56%
COc1ccc(C(=O)N2CCN(S(=O)(=O)c3ccc(Br)cc3)CC2)cc1,active: 18.4 µM,
CC(C)(C)OC(=O)N1CCC(c2c(C(=O)N3CCN(c4ccccn4)CC3)cnn2-c2ccc(F)cc2F)CC1,"inconclusive [inhibitor, single point]",
CC(OC(=O)C1CCN(S(=O)(=O)c2ccc(Cl)cc2)CC1)C(=O)NC1CCCCC1C (stereo unspecified),"inconclusive [inhibitor, single point]",
COCCNc1nnc(SC(C)C(=O)Nc2ccc(-c3nc4ccc(C)cc4s3)cc2)s1 (stereo unspecified),,inactive: -27.9%
c1ccc(CNc2ccc3ccccc3n2)nc1,,inactive: -21%
O=C(/C=C/c1ccccc1)c1cc(Br)ccc(=O)c1O,active: 3.66 µM,
Cc1cccc(C)c1NC(=O)C(c1ccccc1F)n1c(=O)c(-c2cc3ccccc3[nH]2)nc2ccccc21 (stereo unspecified),"inconclusive [inhibitor, single point]",
CCc1nc2c(OCc3ccccc3)cccn2c1N(C)C(=O)C(C)C,"inconclusive [inhibitor, single point]",
C[C@@H]1CCC(=O)N(C[C@@H](C)CSc2ccccc2)CC1,"inconclusive [inhibitor, single point]",
Cc1ccc(C)c(NC(=S)N2CCN(Cc3ccccc3)CC2)c1,"inconclusive [inhibitor, partial curve]",
CC(C)C[C@H]1CN=C(Nc2ccccc2)N1CC1CCC(C)CC1 (stereo partly specified),"inconclusive [inhibitor, single point]",
Cc1nn(Cc2ccccc2)c2c1C(c1ccccc1)C(C#N)=C(N)O2 (stereo unspecified),"inconclusive [inhibitor, single point]",
CC(C)NC(=O)c1onc(CSc2ccc(Cl)cc2)c1C(=O)NC(C)C,"inconclusive [inhibitor, single point]",
